The whole screen tested about 350,000 compounds, of which about 31,000 (8.9%) were called active. Inconclusive results, whose numbers are uncertain, are shown with a selection of clear calls. Calls come from the whole dose curve; as a rule, active = well fitted inhibition curve with a large enough effect; inconclusive = small, poorly fitted or top-dose-only effect; inactive = no such curve, though single readings can be large or run the other way. Potencies beside an inconclusive call are fits to weak or partial responses and may not hold up.
These molecules were tested against Histone-lysine N-methyltransferase EHMT2 (Homo sapiens) (UniProt Q96KQ7) (assay: qHTS Assay for Inhibitors of Histone Lysine Methyltransferase G9a). Conditions: G9a H3K9 monomethylation, AlphaScreen, 2 h; activity, negative = inhibition: at 59 µM (top of the series) unless noted.
Summary of the method: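 Signal arises when biotinylated H3K9 peptide, once monomethylated, bridges streptavidin donor and antibody-captured acceptor beads. Enzyme at 20 nM was preincubated 15 min with test compounds; peptide 500 nM and SAM 20 uM then reacted for 2 h.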
% is set by controls: 0 for no effect and ±100 for the full control effect; potency is the fitted concentration of half-maximal effect; tags give direction and shape of the fitted curve.
Note: nearly all actives have a fitted effect of over 75% in size.

Sequence of UniProt Q96KQ7 (Q96KQ7 whole entry, looked up): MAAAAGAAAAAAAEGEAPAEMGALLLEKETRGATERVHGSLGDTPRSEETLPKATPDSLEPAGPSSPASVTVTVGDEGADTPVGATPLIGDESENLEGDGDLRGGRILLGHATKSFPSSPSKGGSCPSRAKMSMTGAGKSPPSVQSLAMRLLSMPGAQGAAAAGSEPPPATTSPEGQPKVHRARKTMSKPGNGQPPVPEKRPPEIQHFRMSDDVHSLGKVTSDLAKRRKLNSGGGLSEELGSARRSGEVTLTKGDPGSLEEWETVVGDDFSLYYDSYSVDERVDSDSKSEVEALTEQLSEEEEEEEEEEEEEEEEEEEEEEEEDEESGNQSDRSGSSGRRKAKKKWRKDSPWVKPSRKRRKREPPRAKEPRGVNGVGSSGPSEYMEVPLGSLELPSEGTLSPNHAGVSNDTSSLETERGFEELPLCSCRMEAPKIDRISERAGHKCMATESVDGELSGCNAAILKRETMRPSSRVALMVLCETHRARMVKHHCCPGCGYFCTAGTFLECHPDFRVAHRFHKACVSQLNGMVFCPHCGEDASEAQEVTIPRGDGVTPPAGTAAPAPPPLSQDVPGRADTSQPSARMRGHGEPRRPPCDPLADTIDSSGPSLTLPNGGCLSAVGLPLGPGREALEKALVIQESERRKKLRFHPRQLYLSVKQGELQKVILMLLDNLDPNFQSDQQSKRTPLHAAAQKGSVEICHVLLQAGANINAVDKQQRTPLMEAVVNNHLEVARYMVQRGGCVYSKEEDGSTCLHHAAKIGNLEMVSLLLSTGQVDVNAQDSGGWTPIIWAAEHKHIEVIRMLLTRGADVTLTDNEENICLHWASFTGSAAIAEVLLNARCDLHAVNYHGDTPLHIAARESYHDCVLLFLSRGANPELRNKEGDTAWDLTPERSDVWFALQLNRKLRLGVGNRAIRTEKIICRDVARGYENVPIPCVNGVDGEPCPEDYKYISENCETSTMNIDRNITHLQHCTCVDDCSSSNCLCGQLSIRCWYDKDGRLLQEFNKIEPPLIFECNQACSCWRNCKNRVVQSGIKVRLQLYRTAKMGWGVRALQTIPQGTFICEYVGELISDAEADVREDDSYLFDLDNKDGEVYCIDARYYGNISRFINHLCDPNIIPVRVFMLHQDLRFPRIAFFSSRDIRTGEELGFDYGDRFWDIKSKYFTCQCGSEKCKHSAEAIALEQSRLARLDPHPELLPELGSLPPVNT

Q: `O=C(CN1CCN(Cc2ccc(F)cc2)CC1)NCCc1ccccc1` was tested. Which activity, negative = inhibition did it give?
A: Its activity, negative = inhibition is inactive: 1.26% [at 0.501 µM].

Q: Which Potency does the source give for `O=C(CN1C(=O)NC2(CCCC2)C1=O)N1CCN(c2ccccc2O)CC1` here?
A: Its Potency is inconclusive: 44.7 µM [inhibitor, partial curve, poor fit].

Q: For `C=Cc1ccc(Cn2c(C(=O)OC)cc3sc(C)cc32)cc1`, which Potency is on record?
A: Its Potency is “inactive”.

Q: With `CCc1ccccc1N1C(=O)CC(N2CCc3ccccc32)C1=O` (stereo not given) as the molecule, how does the Potency read?
A: The Potency was inconclusive: 28.2 µM [inhibitor, partial curve, poor fit].

Q: Which Potency does the source give for `O=C(COc1ccccc1)NNC(=S)NC(=O)c1ccc(Cl)cc1Cl` here?
A: Its Potency is active: 1.41 µM.

Q: Which Potency does the source give for `CCn1c(SCC(=O)c2ccc(CNC(C)=O)o2)nnc1-c1cccs1` here?
A: Its Potency is active: 17.8 µM.

Q: How did the Potency turn out when `CCn1ccnc1CN(C)Cc1cn(-c2cc(C)ccc2C)nc1-c1ccccc1` was run?
A: The Potency was active: 50.1 µM.

Q: Which Potency does the source give for `COC(=O)c1c(NC(=O)c2c(OC)cccc2OC)sc2c1CCCC2` here?
A: The Potency was inconclusive: 39.8 µM [inhibitor, single point].

Q: `CCN1CCc2nc(SCC(=O)Nc3ccc(OC)cc3)c(C#N)cc2C1` was tested. Which Potency did it give?
A: The Potency was inconclusive: 89.1 µM [inhibitor, single point].

Q: How did the Potency turn out when `COc1ccc(S(=O)(=O)NCc2ccccn2)cc1NC(=O)c1ccccc1` was run?
A: The Potency was “inactive”.

Q: How did the Potency turn out when `CC1CCCCN1S(=O)(=O)c1ccc2[nH]c(=O)cc(C(=O)NCCc3ccc(Cl)cc3)c2c1` (stereo not given) was run?
A: Its Potency is “inactive”.

Q: For `Cc1cccc(N=C2Sc3nc4c(C)c(C)ccc4cc3CN2CCN2CCOCC2)c1`, which Potency is on record?
A: Its Potency is inconclusive: 39.8 µM [inhibitor, single point].

Q: Which Potency does the source give for `Cc1cc(C)c(-c2csc(NC(=O)C3=NN(c4ccccc4)C(=O)CC3)n2)c(C)c1` here?
A: Its Potency is active: 28.2 µM.

Q: Which Potency does the source give for `CC(C(=O)N1CCCCC1)N(C)CC(=O)Nc1ccc(Cl)cc1` (stereo not given) here?
A: The Potency was inconclusive: 50.1 µM [inhibitor, partial curve].

Q: Which Potency does the source give for `CCN(c1ccccc1)S(=O)(=O)c1c(C)noc1C` here?
A: The Potency was inconclusive: 56.2 µM [inhibitor, partial curve, poor fit].

Q: Which Potency does the source give for `CC(=O)Nc1ccc(S(=O)(=O)NCc2ccc3c(c2)cc(C)n3C)cc1` here?
A: Its Potency is active: 79.4 µM.

Q: With `CC(=O)Nc1ccc(N/C=C/C(=O)C(C)(C)C)cc1` as the molecule, how does the activity, negative = inhibition read?
A: Its activity, negative = inhibition is inconclusive: -69.4% [inhibitor].

Q: How did the Potency turn out when `Cc1cc(Cl)c2oc(C(=O)N(C)CC3CCOCC3)c(C)c2c1` was run?
A: The Potency was “inactive”.

Q: Which Potency does the source give for `CCCCN1C(=O)/C(=C/C=C2\N(C)c3ccccc3C2(C)C)SC1=S` here?
A: The Potency was inconclusive: 3.16 µM [inhibitor, full curve, poor fit].

Q: With `COc1ccc(C(=O)NCCNc2ccc([N+](=O)[O-])cc2)cc1OC` as the molecule, how does the Potency read?
A: The Potency was “inactive”.

Q: How did the Potency turn out when `COc1ccc(CCN2C(=O)CC(Nc3ccc(N4CCOCC4)cc3)C2=O)cc1OC` (stereo not given) was run?
A: The Potency was active: 14.1 µM.

Q: Which Potency does the source give for `Cc1ccc(NC(=O)CSc2nncc3ccccc23)cc1` here?
A: Its Potency is inconclusive: 89.1 µM [inhibitor, single point].

Q: With `CCCNC(=O)Cc1c(O)c2ccccc2[nH]c1=O` as the molecule, how does the Potency read?
A: Its Potency is inconclusive: 35.5 µM [inhibitor, single point].

Q: Which Potency does the source give for `CC(=O)Nc1ccc(C2=NN(C)C(=NCc3ccccc3)SC2)cc1` here?
A: Its Potency is inconclusive: 50.1 µM [inhibitor, partial curve, poor fit].

Q: Which Potency does the source give for `CC(=O)NNC(=S)Nc1cccc(F)c1` here?
A: Its Potency is active: 12.6 µM.

Q: For `O=C(Nc1sc2c(c1C(=O)NC1CC1)CCCCCC2)c1ccco1`, which Potency is on record?
A: Its Potency is inconclusive: 2.24 µM [inhibitor, partial curve, poor fit].

Q: How did the Potency turn out when `OCCC1CN(Cc2cccc3c2OCO3)CCN1C1CCCCC1` (stereo not given) was run?
A: The Potency was “inactive”.

Q: With `O=C(O)CCNc1cc2ccccc2cc1C(=O)O` as the molecule, how does the Potency read?
A: The Potency was inconclusive: 25.1 µM [inhibitor, single point].

Q: For `O=[N+]([O-])c1ccc(NC(=S)NCCc2ccc(F)cc2)cc1`, which Potency is on record?
A: Its Potency is inconclusive: 25.1 µM [inhibitor, single point].

Q: How did the Potency turn out when `COc1ccc(-n2cc(C(=O)Nc3ccccc3C#N)c3ccccc3c2=O)cc1` was run?
A: The Potency was “inactive”.

Q: Which Potency does the source give for `Cc1cc(Br)ccc1OCCNCc1ccccc1` here?
A: The Potency was active: 7.94 µM.

Q: How did the Potency turn out when `COc1ccc(N2CCN(C(=O)c3ccccc3N(C)S(=O)(=O)c3ccc(C)cc3)CC2)cc1` was run?
A: The Potency was inconclusive: 44.7 µM [inhibitor, partial curve, poor fit].

Q: With `CCN1CCN(C(=S)Nc2ccccc2Cl)CC1` as the molecule, how does the activity, negative = inhibition read?
A: Its activity, negative = inhibition is inactive: 19.5% [at 2.33 µM].

Q: `CCc1ccc(CN2CCC(C(=O)Nc3ccc(Oc4ccccc4)nc3)CC2)o1` was tested. Which Potency did it give?
A: The Potency was inconclusive: 63.1 µM [inhibitor, single point].

Q: `Cc1cc(NC(=O)CCc2ccccc2)c([N+](=O)[O-])cc1C` was tested. Which Potency did it give?
A: The Potency was inconclusive: 25.1 µM [inhibitor, single point].

Q: `O=C(c1ccccc1)c1ccc(OCCCCN2CCCCC2)cc1` was tested. Which Potency did it give?
A: The Potency was inconclusive: 1.78 µM [inhibitor, partial curve, poor fit].

Q: Which Potency does the source give for `CC(C)c1cccc(C(C)C)c1NC(=O)COC(=O)C1CCC1` here?
A: The Potency was inconclusive: 89.1 µM [inhibitor, single point].

Q: How did the Potency turn out when `COc1cc(/C=N\NC(=O)OC(C)(C)C)ccc1OC(=O)c1ccco1` was run?
A: Its Potency is inconclusive: 79.4 µM [inhibitor, partial curve, poor fit].

Q: `COc1cc(S(=O)(=O)Nc2ccc3nc(C)sc3c2)ccc1NC(C)=O` was tested. Which Potency did it give?
A: Its Potency is inconclusive: 7.08 µM [inhibitor, single point].

Q: With `COCCNC(=O)CSc1nccn1Cc1ccc2c(c1)OCO2` as the molecule, how does the Potency read?
A: The Potency was inconclusive: 1.41 µM [inhibitor, single point].

Q: How did the Potency turn out when `O=C(NNc1nc(-c2ccccc2)cs1)c1ccccc1` was run?
A: The Potency was inconclusive: 15.8 µM [inhibitor, single point].

Q: `CC1Cn2c(nnc2C23CC4CC(CC(C4)C2)C3)S1` (stereo not given) was tested. Which activity, negative = inhibition did it give?
A: Its activity, negative = inhibition is inactive: 0.0646% [at 12.7 µM].

Q: How did the Potency turn out when `COc1cc(C(=O)Nc2scc(-c3ccc(Br)cc3)c2C(=O)O)cc(OC)c1OC` was run?
A: The Potency was inconclusive: 70.8 µM [inhibitor, partial curve].

Q: With `Cc1ccccc1CNC(=O)Cn1cc2c(n1)-c1c(oc(C(=O)N3CCCC3)c1C)CC2` as the molecule, how does the Potency read?
A: The Potency was inconclusive: 25.1 µM [inhibitor, partial curve, poor fit].

Q: `CC(=O)c1cc(CC(=O)N2CCc3c([nH]c4ccccc34)C2c2ccccn2)cs1` (stereo not given) was tested. Which Potency did it give?
A: The Potency was inconclusive: 22.4 µM [inhibitor, full curve].
